The other results are listed elsewhere or left out. Antibody binding of pooled human sera (four to six donors per pool; dilution not stated) to peptides of the Trypanosoma cruzi antigen TSSA on microarrays. Quantile-normalised fluorescence in arbitrary units, mean of duplicate arrays; higher = more binding. No active / inactive call. The uninfected pools are read here as the healthy donors of the same country. The strongest signals lie near the top of the scale (about 60,000).
Legend:
Assay in all cases: antibody binding signal (normalised fluorescence) (arbitrary fluorescence units); higher = stronger serum antibody binding to peptide
[1] = system: pooled sera of chronic Chagas disease patients, Argentina
Experimental: (§1)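 Microarray of 15-residue peptides over residues 30-55 of Trypanosoma cruzi TSSAII, each with 1 to 10 substitutions at naturally variable positions, probed with one serum pool per country.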

[2] = system: pooled sera of chronic Chagas disease patients, Bolivia
Experimental: as §1

[3] = system: pooled sera of chronic Chagas disease patients, Brazil
Experimental: as §1

[4] = system: pooled sera of chronic Chagas disease patients, Colombia
Experimental: as §1

[5] = system: pooled sera of chronic Chagas disease patients, Mexico
Experimental: as §1

[6] = system: pooled sera of chronic Chagas disease patients, USA
Experimental: as §1

[7] = system: pooled sera of uninfected people, Argentina
Experimental: as §1

[8] = system: pooled sera of uninfected people, Bolivia
Experimental: as §1

[9] = system: pooled sera of uninfected people, Brazil
Experimental: as §1

[10] = system: pooled sera of uninfected people, Colombia
Experimental: as §1

[11] = system: pooled sera of uninfected people, Mexico
Experimental: as §1

[12] = system: pooled sera of uninfected people, USA
Experimental: as §1

| Sequence | antibody binding signal [1] | antibody binding signal [2] | antibody binding signal [3] | antibody binding signal [4] | antibody binding signal [5] | antibody binding signal [6] | antibody binding signal [7] | antibody binding signal [8] | antibody binding signal [9] | antibody binding signal [10] | antibody binding signal [11] | antibody binding signal [12] |
| --- | --- | --- | --- | --- | --- | --- | --- | --- | --- | --- | --- | --- |
| TPPSGKDNKAATGGA | 5600 | 263 | 1510 | 478 | 46000 | 2050 | 466 | 474 | 144 | 151 | 109 | 220 |
| GKDNKTATGGAPSPS | 1700 | 268 | 1430 | 4820 | 4660 | 2780 | 253 | 138 | 117 | 162 | 109 | 122 |
| PSGTDNKPATGETPS | 37300 | 38600 | 47500 | 2030 | 328 | 27300 | 353 | 661 | 653 | 347 | 2000 | 212 |
| KDKKTAAGGAPSQPG | 209 | 222 | 382 | 2240 | 234 | 208 | 170 | 116 | 111 | 168 | 85.3 | 130 |
| GTENKPAAGGAPSQP | 45500 | 7980 | 22400 | 1570 | 1960 | 2970 | 467 | 1720 | 727 | 345 | 304 | 185 |
| TENKAATGETPSQSG | 26700 | 4220 | 24400 | 180 | 199 | 12900 | 126 | 239 | 174 | 103 | 210 | 131 |
| KPATGETPSQPGASS | 27700 | 19800 | 44400 | 159 | 198 | 17700 | 273 | 1940 | 438 | 214 | 1410 | 238 |
| SGTENKAATGEAPSP | 33500 | 41100 | 36800 | 188 | 184 | 32500 | 555 | 343 | 161 | 158 | 123 | 83.4 |
| SGKENKTATGGTPSP | 3210 | 1010 | 17500 | 5120 | 3460 | 19400 | 7090 | 1870 | 144 | 419 | 531 | 182 |
| TSSTPPSGTDNKAAA | 35100 | 48400 | 50700 | 1440 | 9680 | 21200 | 3020 | 993 | 1680 | 480 | 274 | 1340 |
| GKDKKPAAGGTPSPP | 221 | 217 | 141 | 1340 | 456 | 406 | 97 | 82.2 | 416 | 120 | 72.7 | 95.1 |
| TSSTPPSGTDKKPAT | 38300 | 7150 | 43700 | 13300 | 49600 | 10100 | 981 | 214 | 280 | 274 | 3280 | 465 |
| GTEKKPAAGEAPSPP | 4030 | 611 | 11000 | 1460 | 1610 | 13300 | 114 | 1060 | 1380 | 86.3 | 404 | 1060 |
| SGKDKKAATGGAPSP | 901 | 206 | 235 | 904 | 1010 | 1100 | 226 | 95.3 | 86.3 | 303 | 73.7 | 126 |
| KDKKTAAGETPSQPG | 221 | 315 | 17200 | 252 | 169 | 881 | 124 | 96.7 | 107 | 406 | 91.4 | 112 |
| KEKKAAAGETPSQSG | 177 | 205 | 266 | 154 | 122 | 510 | 101 | 99.8 | 81.8 | 99.9 | 88.8 | 95.9 |
| SGKENKPAAGGAPSQ | 2840 | 469 | 19700 | 4520 | 4950 | 18400 | 7070 | 1900 | 116 | 189 | 295 | 190 |
| KDKKPATGETPSPSG | 25100 | 6490 | 18200 | 126 | 132 | 17000 | 130 | 200 | 115 | 112 | 897 | 998 |
| KDKKAAAGGAPSPPG | 225 | 256 | 182 | 2090 | 305 | 452 | 118 | 79.8 | 113 | 146 | 82.1 | 107 |

| Sequence | antibody binding signal [1] | antibody binding signal [2] | antibody binding signal [3] | antibody binding signal [4] | antibody binding signal [5] | antibody binding signal [6] | antibody binding signal [7] | antibody binding signal [8] | antibody binding signal [9] | antibody binding signal [10] | antibody binding signal [11] | antibody binding signal [12] |
| --- | --- | --- | --- | --- | --- | --- | --- | --- | --- | --- | --- | --- |
| GTDNKAAAGGTPSQP | 331 | 763 | 23500 | 2740 | 273 | 993 | 294 | 726 | 2970 | 292 | 716 | 96.8 |
| DKKPATGGAPSQPGA | 1100 | 675 | 17400 | 1530 | 971 | 1800 | 388 | 815 | 227 | 233 | 199 | 253 |
| TSSTPPSGTDNKAAT | 33100 | 45600 | 50200 | 1130 | 9930 | 20000 | 1040 | 606 | 1550 | 179 | 271 | 362 |
| ENKPATGETPSPPGA | 38400 | 34700 | 34600 | 270 | 376 | 25200 | 322 | 483 | 227 | 128 | 1550 | 550 |
| TSSTPPSGKEKKAAT | 15300 | 202 | 306 | 372 | 23000 | 650 | 348 | 331 | 108 | 225 | 93.2 | 134 |
| GTENKTAAGGAPSPP | 34800 | 730 | 600 | 5610 | 1690 | 1240 | 399 | 380 | 389 | 279 | 389 | 179 |
| GTEKKPAAGEAPSQP | 8440 | 15200 | 42100 | 1100 | 1800 | 14800 | 117 | 1070 | 2360 | 82.4 | 464 | 950 |
| KDNKAATGETPSPSG | 2620 | 1000 | 15100 | 273 | 268 | 13000 | 391 | 623 | 174 | 193 | 263 | 3020 |
| TDKKTAAGGTPSPPG | 1570 | 224 | 178 | 10500 | 424 | 1800 | 82.5 | 103 | 1010 | 334 | 228 | 129 |
| GTDNKAAAGEAPSQS | 460 | 20300 | 37600 | 225 | 303 | 12400 | 86.6 | 610 | 1360 | 68.3 | 121 | 105 |
| TDNKPAAGEAPSQSG | 2460 | 17500 | 30500 | 367 | 196 | 16100 | 65.9 | 384 | 163 | 103 | 302 | 82.7 |
| SGKDKKTAAGGTPSP | 804 | 243 | 300 | 5520 | 913 | 2120 | 113 | 88.4 | 258 | 188 | 95 | 114 |
| TISTPPSGTEKKTAA | 37000 | 3520 | 30700 | 788 | 16100 | 3740 | 2020 | 335 | 284 | 142 | 104 | 293 |
| TEKKPATGGAPSQSG | 2670 | 852 | 3250 | 1820 | 2480 | 2540 | 343 | 1250 | 275 | 239 | 208 | 1030 |
| ENKAATGGTPSPPGA | 418 | 2560 | 378 | 532 | 388 | 284 | 210 | 141 | 400 | 355 | 120 | 142 |
| DKKAATGGAPSQPGA | 996 | 888 | 6640 | 1510 | 1000 | 1570 | 340 | 580 | 153 | 660 | 297 | 185 |
| KDKKTATGEAPSPSG | 4750 | 6990 | 4040 | 644 | 189 | 13200 | 157 | 78.2 | 98.8 | 162 | 146 | 113 |
| KKTATGETPSPPGAS | 173 | 267 | 707 | 165 | 190 | 3480 | 398 | 375 | 99.6 | 152 | 76.4 | 543 |
